Out of some 240,000 compounds screened, about 20 (0.008%) were called active. Inconclusive results, whose numbers are uncertain, are shown with a selection of clear calls. Calls come from the whole dose curve; as a rule, active = well fitted inhibition curve with a large enough effect; inconclusive = small, poorly fitted or top-dose-only effect, or effect the other way; inactive = flat fitted curve, though single readings scatter. Potencies of inconclusive entries are left out as doubtful fits.
Target: Alpha-galactosidase A (Homo sapiens) (UniProt P06280)
Assay: qHTS Assay for Inhibitors and Activators of Human alpha-Galactosidase From Spleen Homogenate;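 for activity change, negative = inhibition: 0% = enzyme with vehicle and -100% = no enzyme basal signal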
Details: 4MU-alpha-Gal fluorescence, 40 min; activity change, negative = inhibition: at 80 µM (top of the series)
From the text: NIH Chemical Genomics Center [NCGC] NIH Molecular Libraries Probe Production Centers Network [MLPCN] MLPCN Grant: R03 MH084842-01 Assay Submitter (PI): Wei Zheng NCGC Assay Overview: Alpha-galactosidase is a homodimeric glycoprotein that hydrolyzes the terminal alpha-galactosyl moieties from glycolipids and glycoproteins. Deficiency of this enzyme results in Fabry Disease with progressive accumulation of globotriaosylceramide and other glycosphingolipids in vascular endothelial cells that causes renal failure, myocardial infarction and stroke, and premature death in patients. It has been reported that the improper folding and trafficking of alpha-galactosidase resulting from genetic mutations may account for a significant number of Fabry patients. […] We optimized this alpha-galactosidase assay in 1536-well plate format for identification of novel small molecule inhibitors or activators with structures other than the sugar analogs in order to develop new pharmacological chaperones. In particular, this assay is directed towards discovering compounds active in more natural setting, tissue homogenate, that may have been missed by screens of the purified enzyme under more stringent conditions.
NCGC Assay Protocol Summary: This is a fluorogenic enzyme assay with 4-methylumbelliferyl-alpha-D-galactopyranoside as the substrate and human spleen homogenate containing alpha-galactosidase as the enzyme preparation. Upon hydrolysis of this fluorogenic substrate, the resulting product, 4-methylumbelliferone (which excites at 365 nm and emits at 440 nm) can be detected by a fluorescence plate reader. Data were normalized to the controls for basal activity (without enzyme) and 100% activity (with enzyme). The AC50 values were determined from concentration-response data modeled with the standard Hill equation. Assay buffer: 50 mM citric acid (titrated with potassium phosphate to pH 5.0), 0.01% Tween-20 (pH 5.0 is an optimal condition for this enzyme assay) 1536-well assay protocol for the alpha-galactosidase from human spleen homogenate: (1) Add 2 ul/well spleen homogenate (1 ug) (2) Add 23 nL compounds in DMSO solution. The final titration was 0.5 nM to 58 uM. (3) Add 2 ul of substrate (1 mM final) (4) Incubate at 37C for 40 min (5) Add 2 ul stop solution (1M NaOH and 1M Glycine mixture, pH 10) (6) Detect the assay plate in a ViewLux plate reader (PerkinElmer) with Ex=365 nm and Em=440nm. Keywords: Alpha-galactosidase, Fabry Disease, pharmacological chaperone, chaperone therapy, high throughput screening, alpha- galactosidase inhibitor, MLSMR, MLSCN, NIH Roadmap, qHTS and NCGC
Potency is the fitted concentration of half-maximal effect; tags give direction and shape of the fitted curve.

Chain of UniProt P06280 (P06280 whole entry, looked up): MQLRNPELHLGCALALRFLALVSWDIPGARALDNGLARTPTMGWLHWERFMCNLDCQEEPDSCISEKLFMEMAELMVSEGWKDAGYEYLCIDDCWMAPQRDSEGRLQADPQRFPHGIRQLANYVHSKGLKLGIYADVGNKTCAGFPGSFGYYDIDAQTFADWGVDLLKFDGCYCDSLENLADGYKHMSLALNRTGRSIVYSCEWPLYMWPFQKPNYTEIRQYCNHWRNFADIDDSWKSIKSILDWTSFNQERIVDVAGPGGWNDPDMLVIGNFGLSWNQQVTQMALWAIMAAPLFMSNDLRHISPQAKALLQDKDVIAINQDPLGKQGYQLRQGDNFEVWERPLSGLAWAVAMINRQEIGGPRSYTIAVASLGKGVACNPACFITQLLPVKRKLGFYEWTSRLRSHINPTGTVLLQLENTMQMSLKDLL

Row | Compound | activity change, negative = inhibition | Potency
1 | CCCCCCCCCCCCCC[C@@H](O)[C@@H](O)[C@@H](N)CO | inactive: 4.28% | 
2 | CC1(C)CC(=O)c2c(nc3ccccc3c2N)C1 |  | inconclusive [activator, partial curve]
3 | O=C(NCc1cccs1)c1cc2c(s1)-c1ccccc1OC2 |  | inconclusive [activator, partial curve]
4 | CCOc1ccc(/C(O)=C2\C(=O)C(=O)N(c3cc(C)on3)C2c2ccccc2OC)cc1 (configuration not stated) | inactive: 2.74% | 
5 | Cc1cc(C)cc(N(CCC#N)C(=O)CSc2nc3nc(C)cc(C)n3n2)c1 | inactive: -4.56% | 
6 | Cc1cccn2c(=O)c3cc(C#N)c(=O)n(Cc4cccnc4)c3nc12 |  | inconclusive [activator, partial curve]
7 | CCOC(=O)OCC1OC(C#Cc2ccccc2)C=CC1OC(=O)OCC (configuration not stated) | inactive: -3.36% [at 17.5 µM] | 
8 | O=c1c(-c2ccccc2)nc2cnc(N3CCOCC3)nc2n1C[C@H]1CCCO1 |  | inconclusive [activator, partial curve]
9 | COc1ccc(C(=O)N2CCOCC2)cc1Br |  | inconclusive [inhibitor, single point]
10 | C=CCN1C(=O)NC(c2ccc(OC)cc2)(C(F)(F)F)S/C1=C(\C#N)c1nnc(N2CCOCC2)n1-c1ccccc1 (configuration not stated) | inactive: 1.2% | 
11 | CCCOc1ccc(/C(O)=C2/C(=O)C(=O)N(CCCN3CCOCC3)C2c2ccncc2)cc1 (configuration not stated) |  | inconclusive [activator, single point]
12 | CCOc1ccccc1NC(=O)C(=O)N/N=C/c1cc(Br)ccc1O |  | inconclusive [inhibitor, partial curve, poor fit]
13 | C[C@@H]1OC(O[C@H]2[C@H](Oc3cc(O)c4c(=O)c(O)c(-c5ccc(O)cc5)oc4c3)O[C@H](CO)[C@@H](O)[C@@H]2O)[C@H](O)[C@H](O)[C@H]1O (some centres not stated) | inactive: -4.52% | 
14 | O=C1NC(=Nc2ccccc2)S/C1=C/c1cccnc1 | inactive: -5.85% | 
15 | CCCCCCOc1ccc(C(CC(=O)O)C(N)=O)cc1 (configuration not stated) | inactive: 6.34% | 
16 | COc1cccc(Cn2nc(C(=O)O)c3ccccc3c2=O)c1 | inactive: -9.97% | 
17 | COc1ccc(OC)c(/C=C/C(=O)Nc2cccc(S(=O)(=O)N3CCCC3)c2)c1 |  | inconclusive [activator, single point]
18 | CCOC(=O)c1cc2c(ccc3ccccc32)oc1=O |  | inconclusive [activator, partial curve]
19 | Cc1[nH]nc2c1/C(=N/O)CC(c1ccccc1)C2 (configuration not stated) | inactive: -3.57% | 
20 | CCCn1c(-c2ccc(F)cc2)cnc1SCC(=O)O |  | inconclusive [inhibitor, partial curve]
21 | O=C(CSc1nc(-c2ccccc2)c(-c2ccccc2)[nH]1)Nc1nccs1 |  | inconclusive [activator, single point]
22 | CCNc1ncc2nc(-c3ccc(Cl)cc3)c(=O)n(-c3ccc(OC)cc3)c2n1 |  | inconclusive [activator, partial curve]
23 | OC[C@@H]1[C@@H](c2ccc(F)cc2)C(c2ccccc2)=NN1c1ccccc1 |  | inconclusive [activator, partial curve]
24 | N#Cc1cc2c(OCC(O)CN3CCN(C(c4ccccc4)c4ccccc4)CC3)cccc2[nH]1 (configuration not stated) |  | inactive

Row | Compound | activity change, negative = inhibition | Potency
25 | COc1ccc(/C=C/C(=O)NCC2COc3ccccc3O2)cc1OC (configuration not stated) | inactive: -6.14% | 
26 | CC(=O)Cc1nsc(Nc2ccc3c(c2)OCCO3)n1 |  | inconclusive [activator, full curve]
27 | O=C(Nc1cccc(C(=O)N2CCN(Cc3ccccc3)CC2)c1)c1ccccc1 | inactive: -8.19% | 
28 | Cc1ccc(S(=O)(=O)Nc2cccc3ccc[n+](C)c23)cc1 | inactive: 5.69% | 
29 | Cc1ccc(C(=O)/C=C/C(=O)c2ccc(C)cc2)cc1 | inactive: 16.8% | 
30 | COC(=O)Cc1c(C)c2cc(Cl)c(OC(=O)c3ccco3)cc2oc1=O |  | inconclusive [activator, partial curve]
31 | COCCNC(=O)Cn1cnc2sc(C)c(S(=O)(=O)N3CCC(C)CC3)c2c1=O |  | inconclusive [inhibitor, full curve]
32 | CCOC(=O)N1CCN(S(=O)(=O)c2ccc(OC)c(Cl)c2Cl)CC1 | inactive: -6.47% | 
33 | COC(=O)C1=CN(Cc2ccc(OC)cc2)C=C(C(=O)OC)C1c1ccsc1 |  | inconclusive [activator, partial curve]
34 | COc1ccccc1-c1cc(N(C)Cc2ccco2)ncn1 |  | inconclusive [inhibitor, single point]
35 | COc1ccc(-c2cc(C(=O)OCC(=O)NC(C)(C)C)c3ccccc3n2)cc1 |  | inconclusive [activator, partial curve]
36 | O=c1[nH]c2ccccc2nc1/C=C/c1ccc(Cl)cc1 | inactive: -7.44% | 
37 | COCCCn1c(=NC(=O)c2ccc3c(c2)OCO3)c(C#N)cc2c(=O)n3cccc(C)c3nc21 |  | inconclusive [activator, partial curve]
38 | C=CCOC(=O)C1=C(C)NC(SCC(=O)Nc2nccs2)=C(C#N)C1c1ccc(Cl)cc1 (configuration not stated) |  | inconclusive [inhibitor, single point]
39 | Cc1ccc(CNC(=O)CCn2nc(-c3ccc(Cl)cc3)ccc2=O)cc1 |  | inconclusive [activator, single point]
40 | Cc1cccn2c(=O)c3cc(C(=O)NC4CCS(=O)(=O)C4)sc3nc12 (configuration not stated) |  | inconclusive [activator, partial curve]
41 | CCN1CC=C2C(C#N)=C(N)C(C#N)(C#N)[C@H](c3cccc(OC)c3OC)[C@H]2C1 |  | inconclusive [activator, partial curve]
42 | CC(=O)NC(c1ccc(C)cc1)c1cc([N+](=O)[O-])c2cccnc2c1O (configuration not stated) | inactive: 10.3% | 
43 | Nc1c(C(O)(C(F)(F)F)C(F)(F)F)ccc2ccccc12 |  | inconclusive [activator, partial curve]
44 | Cc1cc(C)cc(N(C(C)C(=O)N2CCCCC2)S(C)(=O)=O)c1 (configuration not stated) |  | inconclusive [inhibitor, partial curve]
45 | NC(=O)c1cc2ccc(O)cc2oc1=NCc1ccccc1 |  | inconclusive [activator, partial curve]
46 | Cc1cc(NS(=O)(=O)c2ccc(NC(=O)CCCC(=O)O)cc2)nc(C)n1 | inactive: -6.04% | 
47 | Clc1ccc(-n2c(SC/C=C/c3ccccc3)nnc2-c2cccnc2)cc1 | inactive: -1.3% | 
48 | C=CCn1c(=N)c(C(=O)NCCCOC)cc2c(=O)n3cccc(C)c3nc21 |  | inconclusive [activator, single point]

Row | Compound | activity change, negative = inhibition | Potency
49 | COc1ccc(C(=O)/C(C#N)=N/Nc2ccccc2[N+](=O)[O-])cc1 |  | inconclusive [inhibitor, partial curve]
50 | O=S(=O)(c1ccccc1)N1CCN(C2CCCCCCC2)CC1 | inactive: -5.25% | 
51 | CC1(C)CCCN(C(=O)c2coc(=O)c(Br)c2)C1 |  | inconclusive [activator, single point]
52 | Nc1ccc(OC(=O)Nc2ccc(O)cc2)cc1 |  | inconclusive [inhibitor, partial curve, poor fit]
53 | Cc1ccc2[nH]c(-c3ccc(F)cc3F)cc(=O)c2c1 | inactive: -3.65% [at 119 µM] | 
54 | Clc1ccc(-c2nc3ncccn3c2Cl)cc1 |  | inconclusive [activator, single point]
55 | C=CCn1c(CNC(=O)c2cccs2)nnc1SCC(=O)Nc1ccc(C(=O)O)cc1 |  | inconclusive [inhibitor, single point]
56 | CC(=O)Nc1ccc(NC(=O)c2c(C)nc3ccccn23)cc1 |  | inconclusive [activator, single point]
57 | S=c1[nH]nc(CSCCOc2ccc(Cl)cc2Cl)o1 | inactive: 0.389% | 
58 | COc1ccc(C(=S)Nc2ccc(C)cc2)cc1 | inactive: -2.09% | 
59 | C=CCN1C(=O)C2(c3ccccc31)C1CCCC=C1C(C#N)=C(N)C2(C#N)C#N (configuration not stated) | inactive: -15.5% | 
60 | Cc1ccc2nc3c(cc(C(=O)NCCCn4ccnc4)n3C)c(=O)n2c1 |  | inconclusive [activator, partial curve]
61 | Cc1ccc(S(=O)(=O)c2c(N)n(Cc3ccco3)c3nc4ccccc4nc23)cc1 |  | inconclusive [activator, partial curve]
62 | CCCN1C(=O)/C(=C/c2ccc(N3CCCC3)c(C)c2)NC1=S |  | inconclusive [activator, single point]
63 | O=c1c(-c2ccco2)[n+]([O-])c2ccccc2n1OCc1ccccc1 | inactive: -1.3% | 
64 | CCN(CC)C(=O)COc1ccc2c(c1)C(=O)CC(C)(C)O2 |  | inconclusive [activator, single point]
65 | COc1cc(OC)cc(-c2sc3ccccc3c(=O)c2I)c1 | inactive: -6.84% | 
66 | Cc1cccn2c(=O)c3cc(C#N)c(=O)n(CC4CCCO4)c3nc12 (configuration not stated) |  | inconclusive [activator, full curve]
67 | CC1=C(C#N)C(/C=N/OCc2ccc(Cl)cc2)CC(=O)N1 (configuration not stated) |  | inconclusive [activator, partial curve]
68 | Cc1ccc(S(=O)(=O)c2c(N)n(CCC(C)C)c3nc4ccccc4nc23)cc1 |  | inconclusive [activator, partial curve]
69 | COC1=C(Nc2ccc(C)cc2)C(=O)c2ccccc2C1=O |  | inconclusive [activator, single point]
70 | CCOC(=O)c1cc2ccc(OC(=O)c3ccco3)cc2oc1=O |  | inconclusive [activator, partial curve]
71 | COc1ccc(NC(=S)NC(=O)c2ccccc2Cl)cc1 | inactive: 13.4% | 
72 | N#CCCn1c(=O)c(-c2ccc(Cl)cc2)nc2cnc(N3CCNCC3)nc21 |  | inconclusive [activator, partial curve]

Source: PubChem BioAssay AID2107 (National Center for Advancing Translational Sciences (NCATS), 2009)
